Data published in PubChem BioAssay AID686979 (National Center for Advancing Translational Sciences (NCATS), 2013).
Among all 420,000 compounds or so, about 50,000 (12%) were called active. The inconclusive results got no clear call from the source; some entries with a clear call stand among them for comparison. Calls come from the whole dose curve; as a rule, active = well fitted inhibition curve with a large enough effect; inconclusive = small, poorly fitted or top-dose-only effect; inactive = flat fitted curve, though single readings scatter. No potency is given beside an inconclusive call; the fits are too rough.

Assay: qHTS for Inhibitors of human tyrosyl-DNA phosphodiesterase 1 (TDP1): qHTS in cells in presence of CPT; note: nearly all actives have a fitted effect of over 55% in size
Conditions: chicken DT40 Tdp1-/-;hTDP1 cells + 20 nM CPT, ATP luminescence, 48 h; activity change, negative = growth inhibition: at 46.2 µM (top of the series) unless noted
Summary of the method: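 Cell growth measured by CellTiter-Glo luminescence after a minimum 48 h, 37 C compound exposure with 20 nM CPT in Tdp1-knockout DT40 cells stably expressing hTDP1, seeded 400/well; qHTS titration format.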
% is set by controls: 0 for no effect and ±100 for the full control effect; potency is the fitted concentration of half-maximal effect; tags give direction and shape of the fitted curve.

SMILES | Potency | activity change, negative = growth inhibition
COc1ccccc1/C(C)=N/NC(=O)c1nnn(-c2nonc2N)c1C(C)C | inconclusive [inhibitor, single point] | 
Cc1cccc(-c2nc(CS(=O)CC(=O)NCCCSC3CCCCC3)c(C)o2)c1 (stereo not drawn) | inconclusive [inhibitor, partial curve, poor fit] | 
COc1ccc(-n2nc(C(=O)NCC(=O)Nc3cc(OC)c(OC)c(OC)c3)c3ccccc3c2=O)cc1OC |  | inactive: 4.2%
Cc1ccc2nc(NC(=O)CSc3nccn3Cc3ccccc3)sc2c1 | active: 25.9 µM | 
CC(C)NC(=O)c1ccc2c3n(nc2c1)-c1ccc(Cl)cc1CO3 | inconclusive [inhibitor, single point] | 
CCCCn1nnnc1C(c1cc2ccccc2o1)N(CCN(C)C)Cc1ccccc1 (stereo not drawn) | active: 25.9 µM | 
O=C(CCc1nc2ccccc2c(=O)[nH]1)N1CCCc2ccccc21 | inconclusive [inhibitor, partial curve, poor fit] | 
CC(Oc1ccccc1)c1ccnc2nc(N3CCOCC3)nn12 (stereo not drawn) |  | inactive: 6.45%
CCOC(=O)c1cnc2ccccc2c1Nc1ccc(N2CCOCC2)cc1 | inconclusive [inhibitor, partial curve, poor fit] | 
C[C@H](CO)N1C[C@H](C)[C@H](CN(C)C(=O)Nc2ccc(C(F)(F)F)cc2)Oc2c(NC(=O)c3ccncc3)cccc2C1=O | inconclusive [inhibitor, single point] | 
CC(=O)Nc1cccc(/C(C)=N/Nc2nc3ccccc3s2)c1 | inconclusive [inhibitor, single point] | 
CCOP(=O)(OCC)C(Nc1ccccc1)c1ccccc1C(F)(F)F (stereo not drawn) | inconclusive [inhibitor, single point] | 
Cc1ccc(N(CC(=O)N2CCN(c3cc(Cl)ccc3C)CC2)S(=O)(=O)c2c(C)noc2C)cc1 | active: 20.6 µM | 
CCN1C(=O)[C@H]2[C@@H](c3ccc(C)cc3)N3C(=O)N(c4cccc(F)c4)C(=O)[C@@]3(Cc3ccc(Cl)cc3)[C@H]2C1=O | inconclusive [inhibitor, single point] | 
COc1cc(SC)ccc1C(=O)NC1CCCc2ccccc21 (stereo not drawn) | inconclusive [inhibitor, single point] | 
O=C1/C(=C/c2ccccc2)CCC1C1CCCC1 (stereo not drawn) |  | inactive: 3.31%
O=C(NCC1CCCCC1)c1cccc(Br)c1 | inconclusive [inhibitor, single point] | 
Cc1ccc(NC(=O)Nc2ccc(F)cc2)cc1Cl | inconclusive [inhibitor, single point] | 
c1ccc(OCc2nn3c(-c4n[nH]c5c4CCC5)nnc3s2)cc1 | inconclusive [inhibitor, single point] | 
C/C=C/c1ccc2c(c1)O[C@H](CN(C)C(=O)NC1CCCC1)[C@H](C)CN([C@H](C)CO)S2(=O)=O | active: 18.4 µM | 
O=C(CCC1CCCCC1)NCCN1C2=NC[C@H](Cc3ccccc3)N2C[C@H]1Cc1ccc(O)cc1 | active: 20.6 µM | 
O=C(CSc1ccc(-c2cccc([N+](=O)[O-])c2)nn1)NC1CCCC1 |  | inactive: 5.99%
COc1ccc(OC)c(NC(=O)c2sc3nc4c(cc3c2N)CCCCCC4)c1 | inconclusive [inhibitor, partial curve, poor fit] | 

SMILES | Potency | activity change, negative = growth inhibition
Cc1sc2c(c1C)C(=O)NC(c1ccccc1F)N2 (stereo not drawn) | inconclusive [inhibitor, single point] | 
COc1ccc(-c2c(-c3ccc4c(c3)OCO4)noc2-c2ccsc2)cn1 | active: 12.6 µM | 
Cc1ccc(NC(=O)CNCC2CCCCC2)cc1S(=O)(=O)N(C)C | active: 16.4 µM | 
CCN(c1ccccc1)S(=O)(=O)c1ccc(C(=O)N(C)CCc2ccc(OC)c(OC)c2)cc1 | inconclusive [inhibitor, single point] | 
Cc1cccnc1C(NC(=O)C1CCN(CCOc2ccc(F)cc2)CC1)c1ccc(Cl)cc1 (stereo not drawn) | inconclusive [inhibitor, single point] | 
Cc1noc2ncnc(NCc3ccccc3Cl)c12 | active: 18.4 µM | 
Cc1oc(-c2ccccc2F)nc1CN1CCC(C(=O)NC2CCCc3ccccc32)CC1 (stereo not drawn) | active: 14.6 µM | 
CCOC(=O)c1ccccc1NC(=O)c1ccc2nccnc2c1 | inconclusive [inhibitor, single point] | 
O=C(c1sc2ccccc2c1Cl)N(Cc1ccco1)C1CCS(=O)(=O)C1 (stereo not drawn) | inconclusive [inhibitor, single point] | 
OCc1cccc(-c2csc(C(O)c3ccco3)n2)c1 (stereo not drawn) | inconclusive [inhibitor, single point] | 
Cc1ccccc1CSc1cn(CC(=O)N2CCCC2)c2ccccc12 | inconclusive [inhibitor, single point] | 
COc1ccc(NS(=O)(=O)c2cc(NC(=O)/C=C/c3cccs3)ccc2N2CCOCC2)cc1 | inconclusive [inhibitor, single point] | 
CCN(Cc1ccccc1)C(=O)Cn1c(=O)oc2cc(S(=O)(=O)N3CCCCCC3)ccc21 | active: 16.4 µM | 
O=C(NC(=S)NNC(=O)c1ccccc1O)c1ccc(F)cc1 | inconclusive [inhibitor, single point] | 
Cc1ccc(C)c(NC(=O)CN(C)C(=O)c2ccc(COc3ccccc3)cc2)c1 | inconclusive [inhibitor, single point] | 
COc1ccc(NC(=O)CSc2n[nH]c(C(C)C)n2)c([N+](=O)[O-])c1 |  | inactive: -17.8%
O=C(Nc1ccc(C(=O)N2CCCC2)cc1)c1cc(F)c(F)cc1Cl |  | inactive: -24.1%
COc1cccc(C(=O)N2CCN(S(=O)(=O)Cc3ccccc3)CC2)c1OC | inconclusive [inhibitor, single point] | 
COc1ccc(N2CC(C(=O)N/N=C/c3cccs3)CC2=O)cc1 (stereo not drawn) |  | inactive: -14.7%
CC(C)(C)c1ccc(C(=O)CC(Sc2ccc(Cl)cc2)C(=O)O)cc1 (stereo not drawn) | active: 3.26 µM | 
Cc1ccc(C)c(N2CCN(C(c3ccc(F)cc3)c3nnc(-c4ccccc4)o3)CC2)c1 (stereo not drawn) | inconclusive [inhibitor, single point] | 
Cc1nc2ccccc2c2oc(C(=O)N3CCC(C)CC3)cc12 | inconclusive [inhibitor, single point] | 
COC(=O)c1ccc2c(=O)n(CCN3CCOCC3)c(SCC(=O)Nc3cccc(OC)c3)nc2c1 |  | inconclusive: -38.3% [inhibitor]

SMILES | Potency | activity change, negative = growth inhibition
CCN(CC)CCC(=O)N1c2ccccc2Sc2ccc(Cl)cc21 | active: 14.6 µM | 
N#Cc1c(N(CCO)CCO)nc(N)c2c(N)nc3c(c12)CC(=O)N3Cc1cccs1 | inconclusive [inhibitor, single point] | 
CC(C)c1nc(SCC(=O)N2c3ccccc3CC2C)c2ccccc2n1 (stereo not drawn) | inconclusive [inhibitor, single point] | 
CCOC(=O)CC1(CCc2ccccc2)Oc2ccccc2N1S(=O)(=O)c1ccc(C)cc1 (stereo not drawn) | inconclusive [inhibitor, full curve, poor fit] | 
Cc1cccc(CSc2nc3c(c(-c4cccs4)c2C#N)CN(C)CC3)c1 | inconclusive [inhibitor, single point] | 
COc1ccc(CCN(C(=O)COc2ccccc2)c2nc(-c3ccccc3)cs2)cc1OC |  | inactive: -26.3%
COc1ccc2[nH]c(=O)c(CN(CC3CCCO3)S(=O)(=O)c3ccccc3)cc2c1 (stereo not drawn) | inconclusive [inhibitor, partial curve] | 
COc1ccc(OC)c(NC(=O)CC2C(=O)NCCN2C(=O)Nc2cccc(Cl)c2)c1 (stereo not drawn) |  | inconclusive: -33.3% [inhibitor]
Cc1cc(N(C)Cc2ccccc2)nc(-c2ccccc2)n1 | inconclusive [inhibitor, single point] | 
CN(C)C1=NC[C@H](Cc2ccccc2)N1CC1CCCCCC1 | active: 5.8 µM | 
CNc1ccc(/C=C/C(=O)c2ccc(C)cc2)cc1[N+](=O)[O-] | inconclusive [inhibitor, single point] | 
O=C(OCC(=O)N1CCCCCC1)c1cnc(Cl)c(Cl)c1 |  | inactive: -21.8%
Cc1ccc(S(=O)(=O)NNc2ccccc2)cc1 |  | inactive: -20.7%
O=C(NCCC1=CCCCC1)c1[nH]c(C(F)(F)F)nc1-c1ccccc1 | active: 16.4 µM | 
COc1ccc(NC(=O)C2(C)Cc3c(-c4ccc(C(N)=O)cc4)ccnc3O2)cn1 (stereo not drawn) | inconclusive [inhibitor, partial curve, poor fit] | 
COc1ccc(NC(=S)NC(NC(=O)CCl)C(Cl)(Cl)Cl)c([N+](=O)[O-])c1 (stereo not drawn) | inconclusive [inhibitor, single point] | 
COC(=O)c1c(C)[nH]c(C(=O)CSc2ncnc3sc(-c4ccccc4)cc23)c1C | active: 18.4 µM | 
O=C(N/N=C/c1cccc(OCc2ccccc2)c1)c1ccc(Br)cc1 | inconclusive [inhibitor, single point] | 
COC(=O)C[C@H]1C[C@H]2c3cc(NC(=O)C4CCC4)ccc3O[C@H]2[C@H](CO)O1 |  | inactive: -5.04%
C#CCOCCOCCOCCNc1nc(N2CCN(C(=O)[C@H](C(C)C)n3cc(CCO)nn3)CC2)nc(N2CCN(C(=O)[C@H]([C@@H](C)CC)n3cc(CCC(=O)O)nn3)CC2)n1 |  | inactive: -1.5%
O=C(NCc1ccco1)c1c[nH]c2ccc(S(=O)(=O)N3CCOCC3)cc2c1=O |  | inactive: -29.1%
CN(C)c1ccc(/C=N/N=C/c2ccccc2O)cc1 | inconclusive [inhibitor, partial curve] | 
